According to patent US20240226235A1 (ACCELERON PHARMA, published 2024):

What was measured:
Assay in all cases: cell-based or functional assay
Human TGFβ1 [1] = molecular target: T1, Human TGFβ1 (human, UniProt P01137 partial chain)
Human TGFβ1 [2] = molecular target: T1, Human TGFβ1; remark: listed apart in the source
Human TGFβ1 [3] = molecular target: T1, Human TGFβ1; remark: listed apart in the source

T1 sequence (P01137 279-390 limits assumed): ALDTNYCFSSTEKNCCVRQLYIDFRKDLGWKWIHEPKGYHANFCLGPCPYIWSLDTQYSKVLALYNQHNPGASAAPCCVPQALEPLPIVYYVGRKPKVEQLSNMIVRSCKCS

IC50; inhibition of TGFβ1-induced pGL3(CAGA)12 luciferase reporter in A549 cells (Human TGFβ1 [1])	IC50 (read off the curve); TGFβ1 (640 pg/mL)-induced CAGA luciferase reporter in A549 cells (Human TGFβ1 [2])	IC50; inhibition of TGFβ1-induced pGL3(CAGA)12 luciferase reporter in A549 cells (Human TGFβ1 [3])	Binder
0.22 nM	–	–	hTβRII (G4S)3-hFc (Fc fusion) GATIPPHVQKSDVEMEAQKDEIICPSCNRTAHPLRHINNDMIVTDNNGAVKFPQLCKFCDVRFSTCDNQKSCMSNCSITSICEKPQEVCVAVWRKNDENITLETVCHDPKLPYHDFILEDAASPKCIMKEKKKPGETFFMCSCSSDECNDNIIFSEEYNTSNPDTGGGGSGGGGSGGG[… human IgG1 Fc and a few adjoining residues …]
–	~2 ng/mL	20 pM	hTβRII (G4S)6-hFc (Fc fusion) GATIPPHVQKSDVEMEAQKDEIICPSCNRTAHPLRHINNDMIVTDNNGAVKFPQLCKFCDVRFSTCDNQKSCMSNCSITSICEKPQEVCVAVWRKNDENITLETVCHDPKLPYHDFILEDAASPKCIMKEKKKPGETFFMCSCSSDECNDNIIFSEEYNTSNPDTGGGGSGGGGSGGGGSGGGGSGGGGSGGG[… human IgG1 Fc and a few adjoining residues …]
70 pM	–	–	hTβRII (G4S)4-hFc (Fc fusion) GATIPPHVQKSDVEMEAQKDEIICPSCNRTAHPLRHINNDMIVTDNNGAVKFPQLCKFCDVRFSTCDNQKSCMSNCSITSICEKPQEVCVAVWRKNDENITLETVCHDPKLPYHDFILEDAASPKCIMKEKKKPGETFFMCSCSSDECNDNIIFSEEYNTSNPDTGGGGSGGGGSGGGGSGGG[… human IgG1 Fc and a few adjoining residues …]
7.69 nM	–	–	hTβRII-hFc (Fc fusion) GATIPPHVQKSDVEMEAQKDEIICPSCNRTAHPLRHINNDMIVTDNNGAVKFPQLCKFCDVRFSTCDNQKSCMSNCSITSICEKPQEVCVAVWRKNDENITLETVCHDPKLPYHDFILEDAASPKCIMKEKKKPGETFFMCSCSSDECNDNIIFSEEYNTSNPDTG[… human IgG1 Fc and a few adjoining residues …]
5.67 nM	–	–	hTβRII extended hinge-hFc (Fc fusion) GATIPPHVQKSDVEMEAQKDEIICPSCNRTAHPLRHINNDMIVTDNNGAVKFPQLCKFCDVRFSTCDNQKSCMSNCSITSICEKPQEVCVAVWRKNDENITLETVCHDPKLPYHDFILEDAASPKCIMKEKKKPGETFFMCSCSSDECNDNIIFSEEYNTSNPDTGGG[… human IgG1 Fc …]
–	~3 ng/mL	30 pM	hTβRII (G4S)5-hFc (Fc fusion) GATIPPHVQKSDVEMEAQKDEIICPSCNRTAHPLRHINNDMIVTDNNGAVKFPQLCKFCDVRFSTCDNQKSCMSNCSITSICEKPQEVCVAVWRKNDENITLETVCHDPKLPYHDFILEDAASPKCIMKEKKKPGETFFMCSCSSDECNDNIIFSEEYNTSNPDTGGGGSGGGGSGGGGSGGGGSGGG[… human IgG1 Fc and a few adjoining residues …]
1.12 nM	–	–	hTβRII (G4S)2-hFc (Fc fusion) GATIPPHVQKSDVEMEAQKDEIICPSCNRTAHPLRHINNDMIVTDNNGAVKFPQLCKFCDVRFSTCDNQKSCMSNCSITSICEKPQEVCVAVWRKNDENITLETVCHDPKLPYHDFILEDAASPKCIMKEKKKPGETFFMCSCSSDECNDNIIFSEEYNTSNPDTGGGGSGGG[… human IgG1 Fc and a few adjoining residues …]

Like-named read-outs stand apart in the source and are kept apart here.
